Data taken from PubChem BioAssay AID2675 (National Center for Advancing Translational Sciences (NCATS), 2010).
The campaign covered roughly 280,000 compounds. About 100 (0.036%) were called active. The inconclusive results got no clear call from the source; some entries with a clear call stand among them for comparison. The call rests on the fitted dose curve; in most records, active means well fitted inhibition curve with a large enough effect in the signal ratio, with a control signal flat (not every such curve was filed as active); inconclusive means small, poorly fitted or top-dose-only effect, or effect the other way, or a change in a side signal; inactive means no such curve, though single readings can be large or run the other way; the % refers to the signal ratio. Potencies beside an inconclusive call are fits to weak or partial responses and may not hold up. “Side channel” marks fits to a control or component signal instead of the main read-out.

Biological target: Muscleblind-like protein 1 (Homo sapiens) (UniProt Q9NR56)
Sequence of UniProt Q9NR56 (Q9NR56 whole entry, looked up): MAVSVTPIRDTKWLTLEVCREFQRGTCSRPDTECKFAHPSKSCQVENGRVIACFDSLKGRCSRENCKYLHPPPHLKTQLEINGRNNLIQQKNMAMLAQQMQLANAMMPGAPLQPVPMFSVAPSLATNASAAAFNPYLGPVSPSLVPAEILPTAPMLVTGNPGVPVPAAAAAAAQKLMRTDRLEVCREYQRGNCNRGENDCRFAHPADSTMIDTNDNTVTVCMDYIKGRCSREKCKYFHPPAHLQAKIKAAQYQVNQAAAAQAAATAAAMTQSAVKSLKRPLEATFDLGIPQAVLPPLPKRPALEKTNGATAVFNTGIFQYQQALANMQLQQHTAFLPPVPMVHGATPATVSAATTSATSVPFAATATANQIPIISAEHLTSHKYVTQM
Experiment: qHTS Assay for Inhibitors of MBNL1-poly(CUG) RNA binding
Details: TR-FRET MBNL1-His/biotin-(CUG)12 binding, 665/545 ratio; series mostly up to 57.5 µM
Summary of the method: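 Inhibition of protein-RNA binding appears as loss of TR-FRET between terbium anti-His antibody on MBNL1-His and streptavidin-XL665 on biotin-(CUG)12. Activity is normalized to buffer-only and uninhibited-complex controls.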
Potency means the concentration at half of the fitted maximal effect; tags describe the fitted curve by direction and shape or compound fluorescence and quenching.

Row | SMILES | Potency
1 | Nc1nccc(-c2nn(-c3ccc(Cl)cc3)ccc2=O)n1 | inconclusive: 20 µM [quencher, side channel, partial curve]
2 | O=C(CSc1nc2ccccc2n1CCc1ccccc1)c1ccc(O)c(O)c1 | inactive
3 | NC(=O)c1ccccc1N/C=C/C(=O)c1cccs1 | inconclusive: 28.2 µM [quencher, single point]
4 | O=C(COC(=O)Cc1ccc(Cl)cc1)Nc1ccccc1F | inconclusive: 2 µM [inhibitor, full curve, poor fit]
5 | COc1cc(NC(=O)CN2C(=O)NC(C)(c3ccc4ccccc4c3)C2=O)c(C)cc1[N+](=O)[O-] (stereo not drawn) | inconclusive: 39.8 µM [quencher, single point]
6 | COc1cc2[nH]c(=S)nc(NCc3cccc(Cl)c3)c2cc1OC | inconclusive: 39.8 µM [fluorescent, single point]
7 | Cc1ccc(CN2C(=O)CCC2C(=O)NC(C)C)cc1 (stereo not drawn) | inactive
8 | COc1cc(C(=O)N2C(=O)c3cccc(N)c3C2=O)cc(OC)c1OC | inconclusive: 39.8 µM [fluorescent, single point]
9 | O=C(O)CSCC(=O)Nc1ccc(Cl)cc1C(F)(F)F | inactive
10 | CCN(CC)S(=O)(=O)c1ccc(N/N=C/c2ccccc2OCC(=O)O)c([N+](=O)[O-])c1 | inconclusive: 14.1 µM [quencher, side channel, partial curve]
11 | O=C(O)C(Cc1ccccc1)N1C(=O)/C(=C/C=C/c2ccco2)SC1=S (stereo not drawn) | inactive
12 | N#C/C(=C\c1ccc(-c2ccccc2)o1)C(=O)Nn1cnnc1 | inconclusive: 20 µM [quencher, side channel, partial curve]
13 | Cc1cccc2cc3c(N)c(C(=O)N4CCOCC4)sc3nc12 | inconclusive: 20 µM [quencher, side channel, partial curve]
14 | CCCCC(=O)Nc1cccc(C(=O)N/N=C/c2ccc(OC)cc2OC)c1 | inconclusive: 39.8 µM [quencher, side channel, single point]
15 | CSc1ccc(/C=C/c2cc(=O)c3ccccc3[nH]2)cc1 | inconclusive: 7.94 µM [quencher, side channel, partial curve]
16 | NNC(=O)c1sc2nc(N3CCOCC3)c3c(c2c1N)CCCC3 | inconclusive: 31.6 µM [quencher, side channel, partial curve]
17 | CC(=O)N1CCCc2cc(S(=O)(=O)NCc3ccc(C)cc3)ccc21 | inconclusive: 28.2 µM [quencher, side channel, single point]
18 | CCCCC1=CC2=CC(=O)C(C)(OC(=O)CC)C(=O)C2=CN1c1ccc(OC)cc1 (stereo not drawn) | inconclusive: 14.1 µM [quencher, side channel, partial curve]
19 | O=C(Nc1ncc(Cc2ccccc2Cl)s1)C1CCCO1 (stereo not drawn) | inconclusive: 39.8 µM [quencher, side channel, single point]
20 | CN(c1ccccc1C(=O)Nc1cccc([N+](=O)[O-])c1)S(=O)(=O)c1ccccc1 | inconclusive: 22.4 µM [quencher, side channel, partial curve]

Row | SMILES | Potency
21 | Cn1c(=O)n(C)c2cc(NC(=O)CSc3nnc(-c4ccccc4O)n3-c3ccccc3)ccc21 | inconclusive: 39.8 µM [fluorescent, side channel, single point]
22 | CS(=O)(=O)Nc1cccc(C2=NN(C(=O)c3cccc([N+](=O)[O-])c3)C(c3cccs3)C2)c1 (stereo not drawn) | inconclusive: 25.1 µM [quencher, side channel, single point]
23 | O=C1/C(=C/c2ccc([N+](=O)[O-])cc2)Oc2cc(O)ccc21 | inconclusive: 6.31 µM [quencher, partial curve]
24 | O=C(CN1C(=O)/C(=C/c2cccc(Br)c2)SC1=S)Nc1cccnc1 | inconclusive: 28.2 µM [quencher, single point]
25 | COc1ccc2[nH]c(C)c(CCN(Cc3cccs3)C(=S)Nc3cccc(F)c3)c2c1 | inconclusive: 7.94 µM [quencher, side channel, full curve]
26 | O=c1oc2ccccc2c(NC(c2ccccc2)c2ccccc2)c1[N+](=O)[O-] | inconclusive: 28.2 µM [quencher, side channel, partial curve, poor fit]
27 | O=C(O)c1cnn2c(C(F)F)cc(C(F)F)nc12 | inconclusive: 31.6 µM [quencher, side channel, single point]
28 | O=C(Oc1cccc(C(=S)N2CCOCC2)c1)c1ccc([N+](=O)[O-])cc1 | inconclusive: 14.1 µM [quencher, partial curve]
29 | Cn1c(/C(C#N)=C(\O)c2ccc(S(=O)(=O)N3CCCCC3)cc2)nc2ccccc21 | inactive
30 | CC(=O)c1cccc(NC(=S)NCCC2=CCCCC2)c1 | inconclusive: 1.12 µM [fluorescent, side channel, partial curve]
31 | CCCCn1nnc(NC(=O)c2ccc(-c3cccc([N+](=O)[O-])c3)o2)n1 | inconclusive: 14.1 µM [quencher, side channel, partial curve]
32 | CCOC(=O)c1sc(NC(=O)CSc2nccc(C)n2)c(C#N)c1C | inactive
33 | CC1CN(C(=O)COC(=O)c2cc(Cl)ccc2[N+](=O)[O-])CC(C)O1 (stereo not drawn) | inconclusive: 10 µM [quencher, side channel, partial curve]
34 | Cc1cc(C(=O)Nc2ccc(C(=O)O)cc2)c(C)o1 | inactive
35 | O=C1c2ccccc2C(=O)N1CC1c2ccccc2CCN1C(=O)C1CCCCC1 (stereo not drawn) | inconclusive: 14.1 µM [quencher, side channel, partial curve]
36 | Cc1ccc(C)c(NC(=S)N=Nc2c(O)n(C)c3ccc(S(=O)(=O)N4CCOCC4)cc23)c1 | inactive
37 | O=[N+]([O-])c1cc(-c2nnc(Nc3ccccc3)c3ccccc23)ccc1N1CCOCC1 | inconclusive: 15.8 µM [quencher, side channel, partial curve]
38 | COc1cccc2cc(C(=O)C3=C(O)C(=O)N(CCN4CCOCC4)C3c3ccc(C)o3)oc12 (stereo not drawn) | inconclusive: 20 µM [quencher, single point]
39 | CC(=O)Nc1ccc(NC(=O)C2CCCN(c3ncccn3)C2)cc1 (stereo not drawn) | inconclusive: 12.6 µM [quencher, side channel, single point]
40 | CCNc1ccc(C(=O)OCC(=O)N2CCCC2)cc1[N+](=O)[O-] | inconclusive: 7.94 µM [quencher, side channel, partial curve]

Row | SMILES | Potency
41 | O=C(/C=C/c1cccc([N+](=O)[O-])c1)N1CCN(Cc2ccccc2)CC1 | inconclusive: 10 µM [quencher, side channel, partial curve]
42 | C/C(=N\Nc1ccc2nncn2n1)c1ccc(Cl)s1 | inconclusive: 12.6 µM [quencher, side channel, single point]
43 | Cc1cccn2c(NCc3ccc4c(c3)OCO4)c(-c3ccc(O)cc3)nc12 | inactive
44 | CCOC(=O)c1ccc(N/C=C\C(=O)c2cccc(OC)c2)cc1 | inconclusive: 5.62 µM [fluorescent, side channel, full curve, poor fit]
45 | COc1ccc(Cl)cc1C(=O)NCCS(=O)(=O)N1CCN(c2ccccc2F)CC1 | inactive
46 | Cc1cccn2c(=O)c3cc(C(=O)NCCCN4CCCC4=O)n(C)c3nc12 | inconclusive: 14.1 µM [quencher, side channel, partial curve]
47 | Cc1ccc([N+](=O)[O-])cc1NC1CC(O)C(CO)O1 (stereo not drawn) | inconclusive: 20 µM [quencher, side channel, partial curve, poor fit]
48 | C/C(=N\NS(=O)(=O)c1ccc([N+](=O)[O-])cc1)c1c[nH]c2ccccc12 | inconclusive: 20 µM [quencher, side channel, partial curve]
49 | COc1cc(C(=O)Nc2sc(C(=O)N3CCOCC3)c(C)c2C#N)cc(OC)c1OC | inactive
50 | COc1ccc(N2CCN(C(=O)C3CCN(C(=O)c4ccc([N+](=O)[O-])cc4)CC3)CC2)cc1 | inconclusive: 12.6 µM [quencher, side channel, partial curve]
51 | O=C(N/N=C/c1cc(Br)c(O)c(Br)c1O)c1cccnc1 | inconclusive: 17.8 µM [quencher, single point]
52 | COc1cccc(N/C=C/C(=O)c2ccc(C)cc2)c1 | inconclusive: 31.6 µM [quencher, side channel, single point]
53 | C=CCOn1c(=O)c(-c2ccccc2)[n+]([O-])c2ccccc21 | inconclusive: 7.08 µM [quencher, side channel, partial curve]
54 | COc1ccc(-n2ccnc(SCC(=O)NC3CCCC3)c2=O)cc1 | inconclusive: 14.1 µM [quencher, side channel, partial curve]
55 | Cc1cc(/C=C(\C#N)C(=O)OCC#N)c(C)n1CC(C)C | inconclusive: 25.1 µM [quencher, side channel, single point]
56 | N#CC(C#N)=C1c2cc(S(=O)(=O)NCCO)ccc2-c2ccc(S(=O)(=O)NCCO)cc21 | inconclusive: 2.51 µM [quencher, side channel, full curve]
57 | CCCCC1=CC2=CC(=O)C(C)(OC(=O)CC)C(=O)C2=CN1CCOC (stereo not drawn) | inconclusive: 28.2 µM [quencher, side channel, single point]
58 | O=[N+]([O-])c1cc(/C=N/N2CCOCC2)cs1 | inconclusive: 12.6 µM [quencher, side channel, partial curve]
